According to ChEMBL document CHEMBL4888484, “Replenishing the malaria drug discovery pipeline: Screening and hit evaluation of the MMV Hit Generation Library 1 (HGL1) against asexual blood stage Plasmodium falciparum ,using a nano luciferase reporter read-out” (2022):
The whole screen tested about 150,000 compounds, of which about 540 (0.36%) showed an effect of 50% or more. Some of the results follow.

test system: Plasmodium falciparum; experiment: Primary screen in NF54 nanoGlo assay, in single point, at 2uM, 72h; a lower Z score goes with more inhibition; format: functional, Erythrocyte; conditions: timepoint 72 hour

SMILES | % Inhibition | Z score
NC(=O)c1ccc(CNCC2CC3C=CC2C3)cc1 (stereo not drawn) | 6% | -0.52
CCc1n[nH]c(NS(=O)(=O)c2ccc(C)o2)n1 | -8% | 0.91
CCn1nc(-c2ccc(C(=O)N3CCOCC3)cc2)nc1N(C)C | 3% | -0.39
C[C@@]1(CCF)NC(=O)N(c2cc(-c3cccs3)on2)C1=O | -4% | 0.86
Cc1oc(C2CCN(C(=O)NCCc3ccccc3)CC2)nc1C(=O)N1CCCCC1 | 1% | -0.11
Cc1cc(C)n([C@@H](CNS(=O)(=O)c2cccnc2)c2cccs2)n1 | -1% | 0.15
O=C(C1CCOCC1)N1CC[C@H](Oc2cc(C(F)(F)F)ccn2)C1 | -13% | 2.41
CN(c1nc2c(c(N3CCOCC3)n1)CN(C(=O)c1cccc(C(F)(F)F)c1)CC2)C1CCCCC1 | -1% | 0.17
CCO[C@@H](C)c1ncc(C(=O)NCCC2(OC)CCC2)s1 | -7% | 0.87
CCCOc1ccc2c(c1)OCC(C(=O)NCc1nncn1CC)=C2 | 9% | -1.17
Cc1cn(C)nc1NC(=O)N1CCCCC[C@H]1C(F)(F)F | -16% | 2.11
Cc1ccc(-c2nc(NCc3ccco3)n(S(C)(=O)=O)n2)cc1 | -5% | 0.72
O=C1CCCN1c1ccc(CNS(=O)(=O)c2cn[nH]c2)cc1 | -18% | 2.15
CCN(C)c1ccccc1NC(=O)N(CC(F)F)C1CC1 | -3% | 0.32
CCOC(=O)c1c(C)c(CCC(=O)NCCN2CCCCC2)n(C)c1C | -4% | 0.8
CCOC[C@@H]1CC(F)(F)CN1C1CN(C(=O)c2c[nH]c3ccccc23)C1 | -14% | 1.64
CC(C)CCn1ccc(NC2CCN(C)CC2)n1 | -15% | 1.91
Cc1ccc([C@H]2c3cc(OCc4ccc(C(=O)NCC(C)C)o4)ccc3CCN2C(=O)C2CCCC2)cc1 | -8% | 1.23
CC(C)(C)n1ncnc1-c1ccccc1-c1nnn[nH]1 | -1% | 0.08
CN(Cc1nnc2n1CCC2)C(=O)[C@@]1(C)CC1(Cl)Cl | -15% | 2
Cn1c(=O)n(-c2ccc(NC(=O)c3cccs3)cc2)c(=O)n1C | -11% | 1.28
CC(C)Oc1nc(-c2ccc(C(F)(F)F)cc2)n(-c2ccc(NC(=O)C3CCC3)cc2)n1 | 7% | -1.17
O=C(Nc1nccs1)C1CC2CCCCC2N1S(=O)(=O)c1ccc2c(c1)OCCO2 (stereo not drawn) | -5% | 0.71
Cc1cc(-c2noc(CN3CCC(OC[C@H]4CCCO4)CC3)n2)ccc1F | -3% | 0.39
Cc1n[nH]c(C)c1[C@H](C)NC(=O)CCC(F)(F)F | 5% | -0.71
Cc1cc(C)c(CNC(=O)[C@@H]2CCCc3ccccc32)c(=O)[nH]1 | -4% | 0.67
COc1ccc(Nc2nc(N3CCCC3)nc3c2cnn3C)cc1Cl | 27% | -3.01

SMILES | % Inhibition | Z score
NC(=O)C1CCN(c2nc(-c3ccccc3)nc3oc(-c4ccccc4)nc23)CC1 | -5% | 0.66
Cc1cc(-c2ccc(N3CCOCC3)cc2)c(=O)[nH]n1 | -5% | 1.04
Cc1oc2ccccc2c1CNc1cnccn1 | -7% | 1.24
CCN1CCN(c2nc3ncn(CC(=O)NCc4ccccc4Cl)c(=O)c3s2)CC1 | -9% | 1.47
Cc1cc2nc(C(=O)NCCOc3ccccc3F)cc(C)n2n1 | -1% | 0.2
Nc1ccc(OCCO)c(OCCO)c1 | 6% | -0.83
CCCN(Cc1c(C(C)C)nn(-c2ccccc2)c1Oc1cccc(F)c1)C(=O)c1ccc(Cl)cc1 | -6% | 0.95
CCCN(CCO)Cc1ccc2c3c(cccc13)C(=O)OC2 | 2% | -0.43
COc1ccc(C[C@]2(C)OC(c3ccc(C(C)(C)C)cc3)=NN2C(C)=O)cc1 | -3% | 0.52
O=C(c1cc(F)c(F)c(F)c1)N1CCOC[C@H]1C1CC1 | -6% | 1.11
O=C1[C@@H]2Cc3c([nH]c4ccccc34)C(c3ccccc3)N2C(=O)CN1Cc1ccccc1 (stereo partly drawn) | 7% | -0.89
COc1ccc(Nc2nc(-c3ccccc3)nc3ccccc23)cc1S(=O)(=O)N1CCCCC1 | 0% | -0.07
CCOC1CC(NS(=O)(=O)c2ccc(N(C)C(C)=O)cc2)C1OC (stereo not drawn) | 36% | -3.23
CCC(CC)N1C[C@@H](C(=O)N(C)c2ncc(OC)cn2)CC1=O | 9% | -1.11
Cc1ccc(CNC(=O)Nc2nnc(N3CCC[C@H](C)C3)s2)cc1 | -7% | 1.05
Cc1cccc(NC(=O)[C@H]2CCCN(S(=O)(=O)c3c[nH]c(C(=O)N4CCCC4)c3)C2)c1C | -18% | 1.84
O=C(Cc1ccccc1F)N1CC(n2cnnc2C2CCOCC2)C1 | 39% | -5.27
Cc1noc(C)c1CC(=O)Nc1c(N2CCCC2)nn(C)c1C | -11% | 2.05
CC(C)NC(=O)N1CCC(c2nnc(-c3ccc(F)cc3)o2)CC1 | -5% | 1.07
COc1cc(NC(=O)c2ccc(Oc3nccnc3N3CCC(C)CC3)cc2)cc(OC)c1 | 24% | -3.75
OC(c1ccc(Br)cc1)C1CCCNC1 (stereo not drawn) | -4% | 0.43
O=C(c1coc(COc2cccc3cccnc23)n1)N1CCCO1 | -16% | 2.3
COc1cc(NS(=O)(=O)C(C)C)c(S(=O)(=O)Cl)cc1S(=O)(=O)Cl | 4% | -0.47
COc1ccc(NC(=O)c2ccc(NCc3ccon3)cc2)cc1 | 8% | -1.19
CN(C)S(=O)(=O)Nc1cc(Br)c(F)cc1F | 2% | -0.44
CCCN1CCC(Nc2cc(-c3ccncc3)nc3ccnn23)CC1 | 8% | -1.44
COc1ccc(S(=O)(=O)N[C@H]2CO[C@@H](CN3CCC(F)(F)CC3)[C@@H]2O)cc1 | -3% | 0.43
